From the supplement of paper PMC4604168 (melanoma cell lines)
The list shows a part of the results. Most values come without repeats; read them as rough.
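Note: cells treated in 1,536-well plates, then fixed and DAPI-stained, with nuclei counted from automated high-throughput microscope images.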

Each compound was assayed on WM115 (assay: cell count relative to DMSO control; melanoma cells; higher = more viable cells). Settings: library dose: standard library concentration; 72 h.
Compound `Cc1ccc(NC(=O)c2cccc(N(C)C)c2)cc1NC(=O)c1ccc(O)cc1` + Cn1cc(/C=C2\C(=O)Nc3cccnc32)c2ccccc21 [GW441756] (first compound 10 µM, partner dose 2 µM) has a cell count of 99.7%. Compound `CC(C)(C)c1cnc(CSc2cnc(NC(=O)C3CCNCC3)s2)o1` + OCCn1cc(-c2cnc3nnn(Cc4ccc5ncccc5c4)c3n2)cn1 [PF04217903] (first compound 0.05 µM, partner dose 5 µM) has a cell count of 97.3%. Compound `NC(=O)c1ccc(N(C(N)=O)c2c(F)cccc2F)nc1-c1ccc(F)cc1F` + CCCCCCCCc1ccc(CCC(N)(CO)CO)cc1 [fingolimod] (first compound 2 µM, partner dose 10 µM) has a cell count of 10.1%. In the case of `NC(=O)c1ccc(N(C(N)=O)c2c(F)cccc2F)nc1-c1ccc(F)cc1F` + C[C@@H](Oc1cc(-c2cnn(C3CCNCC3)c2)cnc1N)c1c(Cl)ccc(F)c1Cl [Crizotinib] (first compound 2 µM, partner dose 1 µM), the cell count was 64.2%. Work on `CCCCCCCCc1ccc(CCC(N)(CO)CO)cc1` [fingolimod] + C=C(c1ccc(C(=O)O)cc1)c1cc2c(cc1C)C(C)(C)CCC2(C)C [Bexarotene] (first compound 10 µM, partner dose 10 µM) yielded a cell count of 16.2%. `NC(=O)c1ccc(N(C(N)=O)c2c(F)cccc2F)nc1-c1ccc(F)cc1F` + O=C(O)c1ccc(-c2c[nH]c3ncc(-c4ccccc4)cc23)cc1C1CCCC1 [GSK650394] (first compound 2 µM, partner dose 0.8 µM) gave a cell count of 92.8%.
